The record followed here is article PMC9911399, “Two distinct binding modes provide the RNA-binding protein RbFox with extraordinary sequence specificity”.

Changes are numbered by the printed parent chain; changes in the protein carry UniProt numbers. The list shows a part of the results.

B1: CCCCUGA (DNA:RNA)
RNA: GGGAGACCGGAAUUCAGAUUGUCCCCCCUGAUUAAAUCCCGUCGUAGCCACCA
DNA 1: CAATCTGAATTCCGGTCTCCC
DNA 2: TGGTGGCTACGACGGGATT
B2: GUUAGGG (DNA:RNA)
RNA: B1 RNA with C25G, C26U, C27U, C28A, U29G, A31G
DNA 1: CAATCTGAATTCCGGTCTCCC
DNA 2: TGGTGGCTACGACGGGATT
B3: AACAUUG (DNA:RNA)
RNA: B1 RNA with C25A, C26A, C28A, G30U, A31G
DNA 1: CAATCTGAATTCCGGTCTCCC
DNA 2: TGGTGGCTACGACGGGATT
B4: AUCCUUG (DNA:RNA)
RNA: B1 RNA with C25A, C26U, G30U, A31G
DNA 1: CAATCTGAATTCCGGTCTCCC
DNA 2: TGGTGGCTACGACGGGATT
B5: CUGUCAU (DNA:RNA)
RNA: B1 RNA with C26U, C27G, C28U, U29C, G30A, A31U
DNA 1: CAATCTGAATTCCGGTCTCCC
DNA 2: TGGTGGCTACGACGGGATT
B6: GUAGAAC (DNA:RNA)
RNA: GGGAGACCGGAAUUCAGAUUGUCCGUAGAACUUAAAUCCCGUCGUAGCCACCA
DNA 1: CAATCTGAATTCCGGTCTCCC
DNA 2: TGGTGGCTACGACGGGATT
B7: UAACAUC (DNA:RNA)
RNA: B6 RNA with G25U, U26A, G28C, A30U
DNA 1: CAATCTGAATTCCGGTCTCCC
DNA 2: TGGTGGCTACGACGGGATT
B8: ACAGGCU (DNA:RNA)
RNA: B6 RNA with G25A, U26C, A29G, A30C, C31U
DNA 1: CAATCTGAATTCCGGTCTCCC
DNA 2: TGGTGGCTACGACGGGATT
B9: GCAAUGC (DNA:RNA)
RNA: B1 RNA with C25G, C27A, C28A, A31C
DNA 1: CAATCTGAATTCCGGTCTCCC
DNA 2: TGGTGGCTACGACGGGATT
B10: AUCCUAU (DNA:RNA)
RNA: B1 RNA with C25A, C26U, G30A, A31U
DNA 1: CAATCTGAATTCCGGTCTCCC
DNA 2: TGGTGGCTACGACGGGATT
B11: CAAACUA (DNA:RNA)
RNA: B1 RNA with C26A, C27A, C28A, U29C, G30U
DNA 1: CAATCTGAATTCCGGTCTCCC
DNA 2: TGGTGGCTACGACGGGATT
B12: GGUGUCA (DNA:RNA)
RNA: B1 RNA with C25G, C26G, C27U, C28G, G30C
DNA 1: CAATCTGAATTCCGGTCTCCC
DNA 2: TGGTGGCTACGACGGGATT
B13: GCUUUAU (DNA:RNA)
RNA: B1 RNA with C25G, C27U, C28U, G30A, A31U
DNA 1: CAATCTGAATTCCGGTCTCCC
DNA 2: TGGTGGCTACGACGGGATT
B14: CGGACAC (DNA:RNA)
RNA: B6 RNA with G25C, U26G, A27G, G28A, A29C
DNA 1: CAATCTGAATTCCGGTCTCCC
DNA 2: TGGTGGCTACGACGGGATT
B15: UAGACUA (DNA:RNA)
RNA: B1 RNA with C25U, C26A, C27G, C28A, U29C, G30U
DNA 1: CAATCTGAATTCCGGTCTCCC
DNA 2: TGGTGGCTACGACGGGATT
B16: GGACUUC (DNA:RNA)
RNA: B6 RNA with U26G, G28C, A29U, A30U
DNA 1: CAATCTGAATTCCGGTCTCCC
DNA 2: TGGTGGCTACGACGGGATT
B17: CUGGACU (DNA:RNA)
RNA: B6 RNA with G25C, A27G, A30C, C31U
DNA 1: CAATCTGAATTCCGGTCTCCC
DNA 2: TGGTGGCTACGACGGGATT
B18: UGACUCG (DNA:RNA)
RNA: B1 RNA with C25U, C26G, C27A, G30C, A31G
DNA 1: CAATCTGAATTCCGGTCTCCC
DNA 2: TGGTGGCTACGACGGGATT
B19: UAGUAGG (DNA:RNA)
RNA: B1 RNA with C25U, C26A, C27G, C28U, U29A, A31G
DNA 1: CAATCTGAATTCCGGTCTCCC
DNA 2: TGGTGGCTACGACGGGATT
B20: CCGUCAA (DNA:RNA)
RNA: B1 RNA with C27G, C28U, U29C, G30A
DNA 1: CAATCTGAATTCCGGTCTCCC
DNA 2: TGGTGGCTACGACGGGATT

For this test, the target named is T1, RBFOX1 RRM (Homo sapiens, UniProt Q9NWB1 109-208).
T1 sequence: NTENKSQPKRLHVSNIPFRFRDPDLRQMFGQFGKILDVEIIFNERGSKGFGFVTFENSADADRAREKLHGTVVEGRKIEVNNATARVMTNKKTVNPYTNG
The test is described as follows: EMSA; HiTS-Eq, 1 nM pool, 10 min; buffer printed only for the single-RNA assays: 10 mM Tris pH 7.5, 150 mM NaCl, 3.4 mM EDTA, 0.001% NP-40, 30 C. To be noted: tags: His6 N-terminal (pET28a); label: 5' 32P. In a few lines: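 Purified RbFox RRM (wild type or mutant) was equilibrated for 10 min in 50 µL with 1 nM of a 5′-radiolabelled pool of RNA with 7 randomized nucleotides, its flanks annealed to DNA oligonucleotides, across increasing protein concentrations. Free RNA was separated by 8% native PAGE, excised, reverse-transcribed, PCR-barcoded and sequenced on an Illumina HiSeq 2500. Relative association constants came from read-count changes of each variant against the control reaction, normalised to the cognate motif.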
On the technique in general: Mobility shift assays separate free from complexed probe on a gel.
For B1, the binding signal was 0.00552 KA relative to UGCAUGU.
Turning to B2, the binding signal was 0.00439 KA relative to UGCAUGU.
The same measure for B3: 0.006 KA relative to UGCAUGU; for B4: 0.00658 KA relative to UGCAUGU.
The same measure for B5: 0.00999 KA relative to UGCAUGU; for B6: 0.00867 KA relative to UGCAUGU.
Consider B7, for which the binding signal is 0.00302 KA relative to UGCAUGU.
Take B8: the binding signal is 0.00716 KA relative to UGCAUGU.
For B9 the value was 0.0163 KA relative to UGCAUGU.
The same measure for B10: 0.00057 KA relative to UGCAUGU; for B11: 0.00187 KA relative to UGCAUGU.
For B12 the value was 0.00539 KA relative to UGCAUGU.
With B13, the binding signal is 0.00507 KA relative to UGCAUGU.
The same measure for B14: 0.0177 KA relative to UGCAUGU.
The same measure for B15: 0.0051 KA relative to UGCAUGU; for B16: 0.02 KA relative to UGCAUGU; for B17: 0.00842 KA relative to UGCAUGU.
The same measure for B18: 0.0221 KA relative to UGCAUGU; for B19: 0.00933 KA relative to UGCAUGU.
For the molecule B20, the binding signal is 0.00242 KA relative to UGCAUGU.
